# The other results are listed elsewhere or left out. The exact form of the protein is not confirmed.
# Target: GST-SBP-ILF3 (Homo sapiens) (UniProt Q12906)
# Assay: targeted RNA Bind-n-Seq
# Settings: RBNS binding buffer: 25 mM Tris pH 7.5, 150 mM KCl, 3 mM MgCl2, 0.1% Tween, 0.5 mg/mL BSA, 1 mM DTT; 27 nM protein, 750 pM RNA pool; temperature not stated; high values mean tight binding; sequences stand for … in GGGUAAAAGCGAGGUGAA…CGGGACAAGUAUUAUGGG
row,Sequence,binding signal (log2 fold change)
1,UUUUUUUUUUGAGAGGGGUCCCCUCUUCUA [tttttgagapaired],0.757
2,GGUGGUGGUGUUGGCUUCUAACACCAUCGC [gtspaired],-0.921
3,UUUUUUUUUUGAGAUCGAGGCGAUCUCCAG [tttttgagapaired],0.34
4,UUUUUUUUUUGAGAGCGGCACGCUCUUCUA [tttttgagapaired],-0.3
5,GUGUGGUGUGUUGGAGCCUAACACACUACA [gtspaired],-0.395
6,GUGUUGUGUGUUGGAACCUAACACACAGCG [gtspaired],-0.54
7,UUUUUUUUUUGAGAGCGAUGCGCUCUUCUA [tttttgagapaired],0.227
8,UUUUUUUUUUGAGACCGAGACGGUCUUCUG [tttttgagapaired],0.678
9,GUUGGUGGUGUUGGUUCCUAACACCAUCAA [gtspaired],-0.508
10,UUUUUUUUUUGAGAUGGAGCCCAUCUCCGG [tttttgagapaired],0.318
11,UUUUUUUUUUGAGAUGGGGUCCGUCUUCUA [tttttgagapaired],0.814
12,UUUUUUUUUUGAGAGGGCAACCCUCUCCUA [tttttgagapaired],0.203
13,GUGGUGUGUGUUGGAUUCUAACACACAUCG [gtspaired],-0.888
14,UUUUUUUUUUGAGAUGGAUACCAUCUCCAG [tttttgagapaired],0.00881
15,GUGUGGUGUGUUGGAUUCUAACACAUCGCA [gtspaired],-0.774
16,GUGUGUGGUGUUGGUGCCUAACACCGCGCA [gtspaired],-0.735
17,UUUUUUUUUUGAGAUGGAUACCAUUUCCAG [tttttgagapaired],0.199
18,GUGUGUGGUGUUGGUCUCUAACACCACAUA [gtspaired],-0.322
19,UUUUUUUUUUGAGAUCGAUACGAUCUUCUG [tttttgagapaired],0.35
20,UUUUUUUUUUGAGACGGAUUCUGUCUCCGG [tttttgagapaired],0.178
21,GUUGUGUGUGUUGGCGUCUAACACACACGA [gtspaired],-0.484
22,GUGUGUUGUGUUGGACCCUAACACAGCGCG [gtspaired],-0.503
23,GUGGUUGGUGUUGGUGUCUAACACCGACCG [gtspaired],-0.506
24,UUUUUUUUUUGAGACGGCAGCCGUCUCCUA [tttttgagapaired],0.715
25,UUUUUUUUUUGAGAGCGGGUCGCUCUCCUG [tttttgagapaired],0.404
26,UUUUUUUUUUGAGACCGCUCCGGUCUCCGG [tttttgagapaired],0.556

row,Sequence,binding signal (log2 fold change)
1,UUUUUUUUUUGAGAGGGUGACCCUCUCCUG [tttttgagapaired],0.327
2,GUGUGUUGUGUUGGUCUCUAACACAGCACG [gtspaired],-0.772
3,UUUUUUUUUUGAGACGGGAGCUGUCUCCAG [tttttgagapaired],0.961
4,UUUUUUUUUUGAGAUGGGUACUAUCUCCGG [tttttgagapaired],0.587
5,UUCUCUCCUCCUCCGCUGGAGGGGGAGGGA [ctspaired],-0.524
6,UUUUUUUUUUGAGACGGUCUCUGUCUCCAG [tttttgagapaired],0.912
7,UUUUUUUUUUGAGACGGUCUCCGUCUUCUA [tttttgagapaired],0.575
8,GUGUGGUGUGUUGGAUCCUAACACACCGCG [gtspaired],-0.723
9,GGUUGGUGUGUUGGCCUCUAACACAUCAGC [gtspaired],-0.501
10,GUGUGGUGUGUUGGUCUCUAACACAUCACA [gtspaired],-0.925
11,UUUUUUUUUUGAGAACGAGACGUUCUCCGG [tttttgagapaired],-0.0305
12,UUUUUUUUUUGAGACGGCAACCGUCUCCUG [tttttgagapaired],0.54
13,UUUUUUUUUUGAGACUGAGACAGUCUUCUG [tttttgagapaired],0.389
14,UUUUUUUUUUGAGACGGUAACCGUCUCCGG [tttttgagapaired],0.461
15,UUUUUUUUUUGAGAUGGGCGCCAUCUCCUA [tttttgagapaired],0.467
16,GUGUGUUGUGUUGGACCCUAACACAACGCG [gtspaired],-0.331
17,UUUUUUUUUUGAGAUGGGUGCCAUCUCCUG [tttttgagapaired],0.419
18,GUGUGUGGUGUUGGAUCCUAACACCGCGCG [gtspaired],-0.478
19,UUUUUUUUUUGAGAAGGUGUCCUUCUCCAG [tttttgagapaired],0.502
20,UUUUUUUUUUGAGAUGGUUCCCAUCUCCUG [tttttgagapaired],0.176
21,UUUUUUUUUUGAGACCGUAACGGUCUCCGG [tttttgagapaired],0.471
22,GGUGUGUGUGUUGGUCCCUAACACACAUAC [gtspaired],-0.11
23,GGUUGUGGUGUUGGCCUCUAACACCGCGAC [gtspaired],-0.709
24,UUUUUUUUUUGAGAGGGAAACCCUCUUCUG [tttttgagapaired],0.0767
25,UUUUUUUUUUGAGAGCGGGGCGCUCUUCUA [tttttgagapaired],0.545
26,UUUUUUUUUUGAGAGCGAGGCGCUCUCCAG [tttttgagapaired],0.235

row,Sequence,binding signal (log2 fold change)
1,UUUUUUUUUUGAGAGCGGCACGCUCUCCGG [tttttgagapaired],-0.254
2,GUGGUGUGUGUUGGCUUCUAACACACGCCG [gtspaired],-0.816
3,GUGUGUGGUGUUGGUAUCUAACACCGCAUA [gtspaired],-0.515
4,UUUUUUUUUUGAGAUGGCUACCAUCUCCGG [tttttgagapaired],0.408
5,UUUUUUUUUUGAGAACGUAACGUUCUCCGG [tttttgagapaired],0.122
6,UUUUUUUUUUGAGAUGGAAACUAUCUCCGG [tttttgagapaired],0.126
7,GUGUGUGGUGUUGGCGCCUAACACCAUACA [gtspaired],-0.439
8,UUUUUUUUUUGAGAACGUAGCGUUCUCCUA [tttttgagapaired],0.209
9,UUUUUUUUUUGAGAGCGUUGCGCUCUUCUA [tttttgagapaired],0.432
10,GUGUGGUGUGUUGGUCUCUAACACACUAUA [gtspaired],-0.597
11,GUGUGGUGUGUUGGUAUCUAACACAUCGCG [gtspaired],-0.623
12,UUUUUUUUUUGAGAAGGAGUCCUUCUCCAG [tttttgagapaired],-0.0166
13,UUUUUUUUUUGAGAGGGCGGCCCUUUCCAG [tttttgagapaired],0.669
14,UUCUUCUCUCCUCCGCCGGAGGGGGGAAGA [ctspaired],0.0417
15,UUUUUUUUUUGAGACCGAGUCGGUCUCCUG [tttttgagapaired],0.35
16,GGUUGUGGUGUUGGCAUCUAACACCAUAAC [gtspaired],-0.681
17,UUUUUUUUUUGAGAGCGAUCCGCUCUUCUA [tttttgagapaired],-0.193
18,UUUUUUUUUUGAGACGGAAUCCGUUUCCAG [tttttgagapaired],0.367
19,UUUUUUUUUUGAGAUCGUCACGAUCUCCUA [tttttgagapaired],0.0488
20,UUUUUUUUUUGAGAGUGUAACACUCUCCAG [tttttgagapaired],0.223
21,GGUUGUGGUGUUGGCCUCUAACACCACAGC [gtspaired],-0.771
22,GGUUGUUGUGUUGGUCUCUAACACAACGAC [gtspaired],-0.517
23,GUGGUUGGUGUUGGAAUCUAACACCGACUA [gtspaired],-0.668
24,GGUGGUUGUGUUGGCGCCUAACACAACUAC [gtspaired],-0.458
25,GUUGUGUGUGUUGGCAUCUAACACACGCAA [gtspaired],-0.776
26,GUUGUGUGUGUUGGCCCCUAACACACACGA [gtspaired],-0.109

row,Sequence,binding signal (log2 fold change)
1,UUUUUUUUUUGAGACUGGCACAGUUUCCGG [tttttgagapaired],0.614
2,GUGUGUUGUGUUGGCUCCUAACACAGCGCA [gtspaired],-0.535
3,GGUGUUGGUGUUGGAGCCUAACACCGAUAC [gtspaired],-0.691
4,GUGGUGUGUGUUGGACCCUAACACAUACCA [gtspaired],-0.504
5,GUUGUGUGUGUUGGAUCCUAACACACGCGA [gtspaired],-0.44
6,UUCUCUCUUCCUCCGAUGGAGGGAGAGGGA [ctspaired],-0.413
7,UUUUUUUUUUGAGAGGGGGCCCCUCUCCUA [tttttgagapaired],1.18
8,GUGGUGUGUGUUGGAGCCUAACACAUACCA [gtspaired],-0.88
9,UUUUUUUUUUGAGAUGGGCCCCAUCUCCGG [tttttgagapaired],0.851
10,UUUUUUUUUUGAGAGCGAAGCGCUCUCCGG [tttttgagapaired],-0.053
11,GUGUGUUGUGUUGGAGCCUAACACAGCACG [gtspaired],-0.568
12,UUUUUUUUUUGAGAGGGAAGCCCUCUCCUG [tttttgagapaired],0.394
13,UUUUUUUUUUGAGACGGCGACCGUCUCCGG [tttttgagapaired],0.488
14,UUUUUUUUUUGAGAUCGGGUCGAUCUCCUG [tttttgagapaired],0.387
15,GGUGGUUGUGUUGGCAUCUAACACAGCCGC [gtspaired],-0.623
16,GUGUGGUGUGUUGGUCCCUAACACAUCACG [gtspaired],-0.623
17,UUUUUUUUUUGAGAGGGUCUCCCUCUCCGG [tttttgagapaired],0.318
18,UUUUUUUUUUGAGACGGCGGCCGUUUCCUA [tttttgagapaired],0.849
19,GUGUGUGGUGUUGGUGCCUAACACCACGCG [gtspaired],-0.157
20,GUGUGGUGUGUUGGCUUCUAACACACCGCG [gtspaired],-0.545
21,GUGUGUGGUGUUGGAACCUAACACCGCGCG [gtspaired],-0.722
22,UUUUUUUUUUGAGACUGUAGCAGUCUUCUA [tttttgagapaired],0.529
23,UUUUUUUUUUGAGACGGAUACCGUCUUCUA [tttttgagapaired],0.338
24,GUUGUGUGUGUUGGAGCCUAACACACACGA [gtspaired],-0.181
25,UUUUUUUUUUGAGAGGGACUCCCUCUCCAG [tttttgagapaired],0.575
26,UUUUUUUUUUGAGACGGCGACUGUCUCCUG [tttttgagapaired],1.14

# — paper PMC5892938
